Source: PubChem BioAssay AID540267 (National Center for Advancing Translational Sciences (NCATS), 2011)
Hit rate of the full screen: of about 340,000 compounds, about 530 (0.16%) were called active. The inconclusive results got no clear call from the source; some entries with a clear call stand among them for comparison. No stated cut-off is given here; in the data, active means activity change below about -80%; inconclusive means between about -30% and that limit; inactive means weaker than that.

experiment: Small Molecules that selectively kill Giardia lamblia: qHTS; settings: Giardia lamblia trophozoite viability; at 7.66 µM; hits give low values;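 further: parasites exposed to compound for two days anaerobically before the ATP read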
Outline: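 Each well holds 100 Giardia trophozoites and compound. After two days (48 hrs) at 37 deg C in anaerobic conditions, ATP is quantified by luminescence.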
On the % scale 0 is the no-effect control and ±100 the full control effect.

Row | SMILES | activity change
1 | Cc1ccc(C(=O)Nc2ncc([N+](=O)[O-])s2)cc1 | active: -86.5%
2 | CNC(=O)c1ccc(NC(=O)Cc2ccc(S(=O)(=O)N3CCOCC3)s2)cc1 | inactive: -28.6%
3 | S=C(Nc1ccc(Cl)cc1)NC1CCCCC1 | inactive: 10.9%
4 | CCOC(=O)c1cc([N+](=O)[O-])sc1NC(=O)c1ccc(S(=O)(=O)N2CC3(C)CC2CC(C)(C)C3)cc1 (stereo unspecified) | inconclusive: -54.9% [inhibitor]
5 | CN(Cc1ccccc1F)Cc1cc(=O)oc2cc(O)c(Cl)cc12 | inactive: -13.1%
6 | O=C(CN1CCN(CC(=O)Nc2ccc(-c3ccccc3)cc2)CC1)Nc1ccc(F)cc1 | inconclusive: -30.2% [inhibitor]
7 | Cc1c(NC(=O)CSc2ccccc2F)c(=O)n(-c2ccccc2)n1C | inconclusive: -32.8% [inhibitor]
8 | O=C(Oc1c(-c2ccccc2)oc2ccccc2c1=O)c1ccccc1 | inactive: -3.41%
9 | O=C(NC1CCCCC1)c1n[nH]c2c1CCCCC2 | inconclusive: -57.3% [inhibitor]
10 | O=C(O)Cc1sc(Nc2cccc3ccccc23)nc1-c1ccccc1 | inconclusive: -38.8% [inhibitor]
11 | COc1ccc(-c2nc3ccccc3s2)cc1O | inconclusive: -56% [inhibitor]
12 | Cc1ccc(/C=C/C(=O)Nc2ccccc2C(N)=O)cc1 | inconclusive: -61.3% [inhibitor]
13 | CC(C)CN(CC(C)C)C(=O)COc1ccccc1C(N)=O | inactive: 18.7%
14 | Cc1cccc(C2=NN(c3ccccc3)[C@@H](C(=O)N3CCOC3=O)[C@@H]2c2ccc(F)cc2)c1 | inconclusive: -39.2% [inhibitor]
15 | COc1ccc(C)cc1NC(=O)CN1C(=O)COc2ccc(S(=O)(=O)N3CCCCC3)cc21 | inactive: -15.5%
16 | Brc1ccc(Cn2c(-c3cncs3)nc3ccccc32)cc1 | inactive: -11.8%
17 | CCOc1cccc(-c2c(C(=O)N/N=C/c3ccsc3)nnn2-c2nonc2N)c1 | inactive: -12.4%
18 | O=[N+]([O-])c1ccccc1CN1CCN(Cc2c[nH]c3ccccc23)CC1 | inconclusive: -32.9% [inhibitor]
19 | COc1ccc(/C=C/C(=O)OCC(=O)NCc2ccco2)c(OC)c1 | inconclusive: -38.2% [inhibitor]
20 | COc1ccc(-n2nc([N+](=O)[O-])c(=NC3CCN(Cc4ccccc4)CC3)n2O)cc1 | active: -81.8%
21 | C=CCSc1nnc(Cn2c(=O)sc3ccccc32)n1C | inconclusive: -34.9% [inhibitor]
22 | COc1ccccc1CN(C)c1nnnn1-c1ccccc1 | inconclusive: -30.3% [inhibitor]
23 | CCOc1ccc(N(Cc2cc3ccc(C)cc3[nH]c2=O)S(=O)(=O)c2ccccc2)cc1 | inconclusive: -33.7% [inhibitor]
24 | C=CCOC(=O)c1[nH]c2c(c1C)C(=O)CC(c1cc(OC)c(OC)c(OC)c1)C2 (stereo unspecified) | inconclusive: -36.5% [inhibitor]
25 | COc1cc(O)c(C(CC(=O)N2CCN(c3ccccc3)CC2)c2cc(OC)c(OC)c(OC)c2)c(OC)c1 (stereo unspecified) | inconclusive: -37% [inhibitor]
26 | C/C(=N\NC(=O)c1cc2c(s1)CCC(C)C2)c1ccc[nH]1 (stereo unspecified) | inactive: -14.1%

Row | SMILES | activity change
27 | COc1ccc(N2C(=O)c3cc4ccccc4cc3C2=O)cc1 | inconclusive: -35.4% [inhibitor]
28 | CC(C)(C)C(=O)Nc1nnc(SCc2ccc(F)cc2)s1 | inactive: -1.76%
29 | CC(C)(C)N=C(NS(=O)(=O)c1cccs1)c1ccccc1 | inconclusive: -35.4% [inhibitor]
30 | O=C(COc1ccc(Cl)cc1Cl)Nc1ccccn1 | active: -101%
31 | Fc1cccc(Nc2cc(-n3cccn3)ncn2)c1 | inactive: -9.91%
32 | CCOC(=O)CC1(NC(=O)c2cc(COc3cccc(OC)c3)on2)CCCCC1 | inactive: -10.4%
33 | Cc1cc(C)cc(OCC(=O)N/N=C/c2ccco2)c1 | inconclusive: -32.2% [inhibitor]
34 | Cc1ccc2nc3c(c(Nc4cccc(O)c4)c2c1)CCC3 | inconclusive: -32.9% [inhibitor]
35 | Cc1ccc(NC(=O)c2ccc([N+](=O)[O-])cc2Cl)nc1 | inconclusive: -43.9% [inhibitor]
36 | C(=C\c1cc(/C=C/c2ccccc2)ncn1)/c1ccccc1 | inactive: -3.62%
37 | O=C1NN(c2ccccc2)C(=O)/C1=C/c1ccc(Sc2ccc(Cl)cc2)o1 | inconclusive: -34.1% [inhibitor]
38 | O=C(CCc1ccccc1)N[C@@H]1c2ccccc2CC[C@H]1OCc1ccccc1 | inconclusive: -31.3% [inhibitor]
39 | CC(C)(CO)NCC(=O)Nc1cc(C(F)(F)F)cc(NC(=O)CNC(C)(C)CO)c1Cl | inconclusive: -33.1% [inhibitor]
40 | CC[C@]12C(=O)N(C)C[C@H]([C@@H]3C(=O)N(C)C(=O)[C@@H]31)N2C(=O)c1ccc(Cl)c(Cl)c1 | inconclusive: -34.3% [inhibitor]
41 | O=C(NCCc1ccccc1)c1ccc(CS(=O)(=O)c2ccc(Cl)cc2)o1 | inconclusive: -46% [inhibitor]
42 | Cc1ccc(S(=O)(=O)N2[C@@H](c3ccccc3F)C(C(=O)O)=CC[C@H]2c2cccc(Cl)c2)cc1 | inconclusive: -44.5% [inhibitor]
43 | O=C(CNC(=O)c1ccco1)NNC(=O)c1n[nH]c(=O)c2ccccc12 | inactive: -20%
44 | COc1ccc(C2c3c(oc4ccccc4c3=O)C(=O)N2CCN2CCOCC2)cc1OC (stereo unspecified) | inconclusive: -35.3% [inhibitor]
45 | N#C/C(=C\c1ccc(O)c([N+](=O)[O-])c1)c1nc2ccccc2s1 | inconclusive: -76.4% [inhibitor]
46 | Cc1sc(=NC(=O)c2ccco2)n(C)c1-c1ccccc1 | inconclusive: -68.9% [inhibitor]
47 | Cc1cc(N2CCN(C)CC2)nc2ccc(NC(=S)N3CCCCC3)cc12 | inactive: 2.25%
48 | CC(C)(C)c1ccc(C(=O)/C=C2\NC(=O)CS2)cc1 | inconclusive: -38.1% [inhibitor]
49 | COCCC(=O)N1CCC(n2nccc2NC(=O)c2ccccc2C)CC1 | inconclusive: -30% [inhibitor]
50 | O=C(CN1C(=O)c2ccccc2C1=O)c1ccccc1 | inconclusive: -31.4% [inhibitor]
51 | O=C(CSc1nc(O)cc(=O)n1-c1ccccc1)Nc1ccccn1 | inconclusive: -38.7% [inhibitor]
52 | COc1ccc(C2C=C(c3ccc(Br)cc3)Nc3nnnn32)c(OC)c1 (stereo unspecified) | inactive: 15.6%

Row | SMILES | activity change
53 | O=C1C=C(c2cccc3c2Oc2ccccc2S3)C[C@@H](c2ccc(Cl)cc2)C1 | inactive: -1.25%
54 | COc1cccc(NC(=O)Nc2cc(C(=O)O)ccc2N2CC3CC(C2)c2cccc(=O)n2C3)c1 (stereo unspecified) | inactive: 4.02%
55 | C=CCOc1ccc2c(=O)n(C)c3ccccc3c2c1 | inconclusive: -37.3% [inhibitor]
56 | O=C(C1CCN(Cc2ccccc2O)CC1)N1CCN(Cc2ccc3c(c2)OCO3)CC1 | inactive: 16%
57 | COc1cccc(C(=O)Oc2ccc(/C=N/NC(=O)c3ccncc3)cc2OC)c1 | inconclusive: -34.9% [inhibitor]
58 | COC(=O)C1=C(C)N(C)C(=O)NC1c1ccc([N+](=O)[O-])o1 (stereo unspecified) | active: -87.4%
59 | CC(=O)OCON[N+]([O-])=NC(C)C | inconclusive: -70.9% [inhibitor]
60 | CC(C)(C)C(=O)Nc1ccc(N=Nc2ccccc2)cc1 | inconclusive: -44.6% [inhibitor]
61 | O=[N+]([O-])c1cc([N+](=O)[O-])c2cc(-c3cccnc3)[nH]c2c1 | inconclusive: -34.4% [inhibitor]
62 | CC1CCC(NC(=O)C(C)N2C(=O)C3CCCCC3C2=O)CC1 (stereo unspecified) | inactive: 11.5%
63 | O=C(CSc1nc2ccccc2c(=O)[nH]1)N1CCCCC1 | inconclusive: -38.7% [inhibitor]
64 | CC(C)c1ccc(C(=O)Nc2nnc(S(=O)(=O)N3CCOCC3)s2)cc1 | inconclusive: -31% [inhibitor]
65 | O=C(N[C@@H]1C/C=C\C[C@@H](CC(=O)N(CCO)Cc2ccccc2)C(=O)N[C@H](Cc2ccccc2)COC1=O)OCC1c2ccccc2-c2ccccc21 | inconclusive: -30% [inhibitor]
66 | COC(=O)[C@@]12CCCCN1[C@H](c1ccc(-c3ccc(C(C)=O)cc3)cc1)[C@@H]1C(=O)N(C)C(=O)[C@@H]12 | inconclusive: -50.6% [inhibitor]
67 | CC1CCCCC1NC(=O)NC(=O)COC(=O)c1cncc(Br)c1 (stereo unspecified) | inconclusive: -46.4% [inhibitor]
68 | CN(C)c1cccc(C(=O)NNC(=O)C23CC4CC(CC(C4)C2)C3)c1 | inconclusive: -33.6% [inhibitor]
69 | O=C(O)CCn1c(SCCc2ccccc2)nc2ccccc21 | inactive: 8.39%
70 | O=C(NCCN1CCN(C(=O)c2cccs2)CC1)C(=O)Nc1ccc(Br)cc1 | inactive: 25.7%
71 | CN1CCC(=NOc2ccc([N+](=O)[O-])cc2)CC1 | inconclusive: -31.4% [inhibitor]
72 | CS(=O)(=O)N1CCC2CC1c1cc(-c3ccccc3)ccc12 (stereo unspecified) | inconclusive: -32.5% [inhibitor]
73 | COc1ccc([C@@H]2CC=C(C(=O)O)[C@H](c3ccc(Br)cc3)N2S(=O)(=O)c2ccc(C)cc2)cc1OC | inconclusive: -31.5% [inhibitor]
74 | CC(C)Nc1nc(Cl)nc(N(C#N)CN2C(=O)c3ccccc3C2=O)n1 | inactive: 37%
75 | CCN(CC)C(=O)Cn1cc([N+](=O)[O-])cc1[N+](=O)[O-] | inconclusive: -75.2% [inhibitor]
76 | COc1ccc(C(CNC(=O)c2oc3cc(C)c(C)cc3c2C)N2CCCCC2)cc1 (stereo unspecified) | inconclusive: -35.3% [inhibitor]
